Reference: PubChem BioAssay AID686979 (National Center for Advancing Translational Sciences (NCATS), 2013)
Screen size: about 420,000 compounds; about 50,000 (12%) were called active. Inconclusive means that the source gave no clear call. Such entries were picked first, then a sample of the others. Calls come from the whole dose curve; as a rule, active = well fitted inhibition curve with a large enough effect; inconclusive = small, poorly fitted or top-dose-only effect; inactive = flat fitted curve, though single readings scatter. Potencies of inconclusive entries are left out as doubtful fits.

Assay: qHTS for Inhibitors of human tyrosyl-DNA phosphodiesterase 1 (TDP1): qHTS in cells in presence of CPT; note: nearly all actives have a fitted effect of over 55% in size
Conditions: chicken DT40 Tdp1-/-;hTDP1 cells + 20 nM CPT, ATP luminescence, 48 h; activity change, negative = growth inhibition: at 46.2 µM (top of the series) unless noted
Procedure, shortened: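 Chicken DT40 Tdp1-/- cells complemented with human TDP1, 400 cells/well, exposed to compounds plus 20 nM camptothecin for at least 48 h at 37 C; viability read as ATP content by CellTiter-Glo luminescence.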
% is set by controls: 0 for no effect and ±100 for the full control effect; potency is the fitted concentration of half-maximal effect; tags give direction and shape of the fitted curve.

SMILES | Potency | activity change, negative = growth inhibition
COc1cccc(-n2sc3c(c2=S)-c2cc(OC)ccc2NC3(C)C)c1 | inconclusive [inhibitor, single point] | –
COc1ccc(N=C2SC(C(N)=O)CC(=O)N2CCc2ccc(OC)c(OC)c2)cc1 (stereo not given) | inactive | –
Cc1cc(C)cc(Oc2nc3ccccn3c(=O)c2/C=C(\C#N)C(=O)NC2CCS(=O)(=O)C2)c1 (stereo not given) | inconclusive [inhibitor, single point] | –
Nc1ccc(Oc2ccc3nc(-c4ccccc4)c(-c4ccc([N+](=O)[O-])cc4)nc3c2)cc1 | active: 16.4 µM | –
CC1S/C(=N\N=C\c2cccc([N+](=O)[O-])c2)N(C(C)(C)C)C1=O (stereo not given) | inconclusive [inhibitor, single point] | –
CN(CC(=O)Nc1ccc(Cl)c(C(F)(F)F)c1)C(=O)C1(c2ccccc2)CC1 | inconclusive [inhibitor, single point] | –
Cc1ccc(NC(=O)CN2C(=O)COc3ccc(S(=O)(=O)N4CCCCCC4)cc32)cc1Cl | active: 20.6 µM | –
Cc1ccc(N(C(=O)c2csnn2)C(C(=O)NC2CCCCC2)c2ccco2)cc1 (stereo not given) | – | inconclusive: -36.1% [inhibitor]
CCOC(=O)C1CCCN(C(=O)COc2ccc(C(=O)c3ccc(F)cc3)cc2)C1 (stereo not given) | active: 18.4 µM | –
Cc1ccc(OCC(=O)Nc2nonc2-c2ccc(C)c(C)c2)cc1C | inconclusive [inhibitor, single point] | –
COC(=O)c1ccc(CN2CCC(Oc3cccc(C(=O)N4CCOCC4)c3)CC2)cc1 | inconclusive [inhibitor, single point] | –
CCc1c(C)nc2ncnn2c1NCCc1ccc(OC)cc1 | active: 2.82 µM | –
Cc1ccc(C)c(CNC(=O)c2ccc3c(c2)nc2n3CCOC2)c1 | inactive | –
CC(=O)c1cc(C)c(OC(=O)c2ccccc2)c(C)c1 | inconclusive [inhibitor, single point] | –
CCCCOP(=O)(OCCCC)C(Nc1ccccc1)c1ccc2c(c1)OCO2 (stereo not given) | inconclusive [inhibitor, single point] | –
Cc1cc(C)cc(NC(=O)c2cccn2-c2ncc(C(F)(F)F)cc2Cl)c1 | inconclusive [inhibitor, partial curve] | –
CC1CCCN(CCCNC(=O)c2ccc3c(c2)N(Cc2cccc(Cl)c2)C(=O)c2ccccc2S3(=O)=O)C1 (stereo not given) | active: 6.51 µM | –
COc1ccc(C(=O)NNC(=S)NC(=O)c2ccccc2[N+](=O)[O-])cc1 | active: 18.4 µM | –
O=C(NCCCN1CCCC1=O)C1CCCO1 (stereo not given) | inactive | –
COc1ccc(CCC(=O)Nc2nc3ccccc3[nH]2)cc1 | inactive | –
O=[N+]([O-])c1cccc(-c2csc(Nc3ccccc3)n2)c1 | – | inconclusive: -31.2% [inhibitor]
Cc1ccc(C(=O)Nn2cnnc2)cc1 | inactive | –
O=C(Nc1ccc(OC(F)(F)F)cc1)C(Cc1ccccc1)NS(=O)(=O)c1cccc2nsnc12 (stereo not given) | inconclusive [inhibitor, single point] | –

SMILES | Potency | activity change, negative = growth inhibition
CC1CCC(C(C)C)[C@H](O)C1 (stereo not given in full) | – | inconclusive: 4.22% [inhibitor]
COc1ccc(CC(=O)N/N=C/c2ccc(Cl)s2)cc1OC | inconclusive [inhibitor, single point] | –
O=C(C1CCCN(c2ncnc3c2nc2n3CCCCC2)C1)N1CCCCC1 (stereo not given) | inconclusive [inhibitor, single point] | –
CN1CCN(c2ncnc3c2ncn3[C@H]2CN(Cc3ccc(-c4ccccc4)cc3)C[C@@H](CO)O2)CC1 | inconclusive [inhibitor, single point] | –
Cc1ccc(NC(=O)CN(C)CC(=O)N(C)Cc2ccccc2)cc1 | – | inconclusive: -36.3% [inhibitor]
CCc1cc(C(=O)NCC2CCCO2)sc1C (stereo not given) | inactive | –
Cn1c(CCNC(=O)c2ccc(Cl)c(Cl)c2)nnc1SCc1ccc(Cl)c(Cl)c1 | inconclusive [inhibitor, single point] | –
CCOCCCNC(=O)/C(C#N)=C/c1cc(Br)c(O)c(Br)c1 | active: 4.11 µM | –
N#Cc1cccc(NC(=O)N2CCCC3(CCN(C(=O)c4cc(C(F)(F)F)cc(C(F)(F)F)c4)CC3)C2)c1 | inactive | –
C1=Nc2ccccc2/C1=C/c1c[nH]c2ccccc12 | inconclusive [inhibitor, single point] | –
Cc1ccc2c(NC(=O)C3CC3)cccc2n1 | inactive | –
O=C(Cc1cccc2ccccc12)NCC(=O)N1CCN(CC(=O)Nc2ccc(F)cc2)CC1 | inconclusive [inhibitor, single point] | –
CCCNC(=O)NC(=O)COC(=O)c1cccc(NS(=O)(=O)c2ccc(F)c(F)c2)c1 | inconclusive [inhibitor, partial curve] | –
COc1ccccc1NS(=O)(=O)c1cccc(C(=O)NCC(c2cccs2)N(C)C)c1 (stereo not given) | – | inconclusive: -31.4% [inhibitor]
CCN(CC(=O)NC(C)C)C(=O)C(CCSC)NC(=O)c1cccc(C)c1 (stereo not given) | inactive | –
Cc1ccc(SCCN2CCN(CC(C)C)CCC2=O)cc1 | inconclusive [inhibitor, single point] | –
CCC(CC)C(=O)N1CCN(c2cccc(C)c2C)CC1 | active: 14.6 µM | –
CCc1noc(C)c1C(=O)Nc1cc(S(=O)(=O)N(CC)CC)ccc1N1CCCC1 | inactive | –
Cc1ccc(NC(=S)NCCc2c[nH]c3ccccc23)c(C)c1 | active: 13 µM | –
COC(=O)[C@]1(Cc2ccccc2)N[C@H](CN(C)S(=O)(=O)c2ccc(C(C)(C)C)cc2)[C@@H]2C(=O)N(Cc3ccccc3)C(=O)[C@@H]21 | inconclusive [inhibitor, partial curve] | –
CCOC(=O)c1c(Nc2ccc(O)cc2)nnc(-c2ccccc2)c1-c1ccccc1 | inconclusive [inhibitor, single point] | –
N#Cc1ccc(NC(=O)CN2C(=O)NC(Cc3ccccc3)C2=O)cc1 (stereo not given) | inconclusive [inhibitor, partial curve] | –
